From paper PMC4336329 (PLoS ONE, 2015)
About 14,000 (4.5%) of roughly 310,000 compounds showed an effect of 50% or more. Effects have a minus sign here. Some of the results follow.

Each compound was assayed against human ether-à-go-go-related gene (hERG) potassium channel (human, UniProt Q12809) (assay: primary screen, population patch clamp on CHO cells stably expressing hERG).
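Also: peak tail current of the secondary pulse compared with the same well before compound.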

Sequence of human ether-à-go-go-related gene (hERG) potassium channel (Q12809 whole entry, looked up): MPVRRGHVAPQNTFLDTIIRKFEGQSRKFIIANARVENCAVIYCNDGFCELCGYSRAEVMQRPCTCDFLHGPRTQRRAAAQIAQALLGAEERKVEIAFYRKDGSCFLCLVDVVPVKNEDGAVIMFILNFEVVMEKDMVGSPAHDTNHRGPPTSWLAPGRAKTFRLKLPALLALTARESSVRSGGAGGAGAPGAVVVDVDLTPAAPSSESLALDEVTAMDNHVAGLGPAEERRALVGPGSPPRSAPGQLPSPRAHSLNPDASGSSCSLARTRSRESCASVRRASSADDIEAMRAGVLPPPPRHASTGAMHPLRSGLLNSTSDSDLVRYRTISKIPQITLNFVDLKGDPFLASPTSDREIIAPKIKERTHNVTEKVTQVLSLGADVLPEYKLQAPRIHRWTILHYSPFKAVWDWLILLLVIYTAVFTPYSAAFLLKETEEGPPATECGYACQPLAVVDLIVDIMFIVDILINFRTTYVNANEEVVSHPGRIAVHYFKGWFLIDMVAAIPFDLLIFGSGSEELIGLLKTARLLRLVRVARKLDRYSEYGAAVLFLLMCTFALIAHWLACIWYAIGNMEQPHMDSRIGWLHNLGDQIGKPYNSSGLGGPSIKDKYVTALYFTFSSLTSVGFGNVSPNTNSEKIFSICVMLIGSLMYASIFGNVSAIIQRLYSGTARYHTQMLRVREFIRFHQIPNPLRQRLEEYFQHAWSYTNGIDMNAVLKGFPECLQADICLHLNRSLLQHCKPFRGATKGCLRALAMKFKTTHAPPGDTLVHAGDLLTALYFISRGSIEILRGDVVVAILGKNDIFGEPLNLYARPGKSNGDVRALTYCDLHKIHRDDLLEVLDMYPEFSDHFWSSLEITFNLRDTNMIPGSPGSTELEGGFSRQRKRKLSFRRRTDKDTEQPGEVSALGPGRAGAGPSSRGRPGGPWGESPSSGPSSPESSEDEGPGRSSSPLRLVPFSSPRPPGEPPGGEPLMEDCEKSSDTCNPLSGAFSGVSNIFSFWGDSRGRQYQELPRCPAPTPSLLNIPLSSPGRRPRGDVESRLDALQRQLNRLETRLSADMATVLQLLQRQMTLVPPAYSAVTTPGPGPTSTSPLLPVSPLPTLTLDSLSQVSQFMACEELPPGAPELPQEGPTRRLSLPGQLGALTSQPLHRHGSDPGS

Row | SMILES | hERG current change (%, negative = inhibition) at 10uM
1 | NC(=O)C1CCN(C(=O)c2ccc([N+](=O)[O-])cc2NC(=O)c2cccs2)CC1 | 0.861%
2 | CCC(=O)Nc1nnc(S(=O)(=O)N(CC)c2cc(C)cc(C)c2)s1 | 14.2%
3 | Clc1ccc(CSc2nnc(Cn3cnc4ccccc43)o2)cc1 | -8.81%
4 | COc1ccc(/C=C2\SC(=S)N(CCCC(=O)N3CCCCC3CCO)C2=O)cc1 (centres unmarked) | 5.09%
5 | O=C(Nc1cccnc1)c1ccc2c(c1)C(=O)N(Cc1cccnc1)C2=O | -11.1%
6 | COc1cccc(CC2(CO)CCCN(Cc3cn[nH]c3-c3ccc(F)cc3)C2)c1 (centres unmarked) | 6.58%
7 | CCCCN=Cc1c(C)[nH]n(-c2ccccc2)c1=S | -4.64%
8 | O=C(Nc1cccc(O)c1)N1CCOCC1 | -6.87%
9 | COc1ccc(NC(=O)C2CCCN(S(=O)(=O)c3c(C)n[nH]c3C)C2)cc1OC (centres unmarked) | 49.7%
10 | CCCn1c(SCC(=O)c2ccc(OC)c(OC)c2)nc2c1c(=O)n(C)c(=O)n2C | 3.35%
11 | O=[N+]([O-])c1ccc2[nH]c(O)c(N=Nc3ccc(F)cc3)c2c1 | 14.6%
12 | NC(=O)COC(=O)c1ccc2noc(-c3ccccc3)c2c1 | 2.86%
13 | COc1ccc(-c2cnnc(N/N=C/c3ccc(C)o3)n2)cc1 | 4.44%
14 | CC(=O)Nc1ccc(S(=O)(=O)Nc2ccccc2C(=O)NCc2cccnc2)cc1 | 10.3%
15 | Cc1nc2sc(C(c3cccs3)N3CCC4(CC3)OCCO4)c(O)n2n1 (centres unmarked) | -0.485%
16 | Cc1ccc(Cl)cc1N1CCN(C(=O)c2ccc(CN3CCOCC3)cc2)CC1 | -34.6%
17 | Cc1ccc(O)c(C(=O)c2cnc3c(c2)COc2ccc(C)cc2-3)c1 | 9.15%
18 | CC(NC(=O)CN(C)CC(=O)Nc1ccccc1Br)c1ccccc1.O=C(O)C(=O)O (centres unmarked) | 6.92%
19 | CC1CCN(c2nc3nonc3nc2N2CCC(C)CC2)CC1 | -12%
20 | N#Cc1ccccc1S(=O)(=O)N1CCN(C(=O)CN2CCCC2c2cccs2)CC1 (centres unmarked) | -32.3%
21 | O=C(CCN1C(=O)c2ccccc2C1=O)OCN1C(=O)c2ccccc2C1=O | -11.5%
22 | O=C(O)/C=C/c1ccc(S(=O)(=O)N2CCCCCC2)cc1 | 8.98%

Row | SMILES | hERG current change (%, negative = inhibition) at 10uM
23 | CC(=O)N1CCN(C(=O)CCCNC(=O)c2ccc(Cl)cc2)CC1 | 14%
24 | Cc1onc(-c2ccccc2)c1C(=O)NC(C)C | 13.2%
25 | Cc1cc(C)c(S(=O)(=O)Nc2cc(C)on2)c(C)c1 | 5.9%
26 | O=C(CNc1cccc(S(=O)(=O)N2CCCC2)c1)Nc1ccc(F)c(F)c1 | -18%
27 | CCOC(=O)C1CCCN(C(=O)CCNC(=O)Cn2ccc3ccccc3c2=O)C1 (centres unmarked) | 17.5%
28 | CN(c1cccc(NC(=O)c2ccc(N(C)S(=O)(=O)c3ccccc3)cc2)c1)S(C)(=O)=O | 16.8%
29 | CS(=O)(=O)N1CCN(c2ccccc2NC(=O)Nc2cccc(Cl)c2)CC1 | 23.6%
30 | COc1ccc(C(=O)NC2CC2)cc1OC1CCN(Cc2cnn(C)c2)CC1 | -32.7%
31 | COC(=O)COc1ccc(/C=C2/NC(=O)N(CC(=O)OC)C2=O)cc1 | 12.3%
32 | Cc1cc(NC(=O)c2cnn3c(C(F)F)cc(C4CC4)nc23)no1 | -9.28%
33 | O=C(OCC(=O)N1CCN(c2ccccc2)CC1)c1ccncc1 | -5.92%
34 | Cc1nn(-c2ccccc2)c(=S)c2ccccc12 | 12.1%
35 | O=C(CNc1cccc(S(=O)(=O)N2CCOCC2)c1)Nc1ccc(C(F)(F)F)cc1 | -44.2%
36 | O=C1c2c(O)cc(O)cc2O[C@H](c2ccc(O)cc2)[C@H]1O | 7.83%
37 | Cc1ccc(S(=O)(=O)Nc2cc(S(=O)(=O)N3CCOCC3)ccc2NCC2CCCO2)cc1 (centres unmarked) | -6.01%
38 | CC(C)(C)c1ccc(OCc2ccc(C(=O)Nc3cccnc3)o2)cc1 | -14.3%
39 | Cn1c(O)c(C=NCCCC(=O)O)c(=O)n(C)c1=O | -6.59%
40 | Cc1ccnc(NS(=O)(=O)c2ccc(NC(=O)c3ccc(C)o3)cc2)n1 | -0.797%
41 | CN(C)c1ccc(-c2nnn(CC(=O)N3c4ccccc4CCc4ccccc43)n2)cc1 | 11.7%
42 | CCOC(=O)c1c(-c2ccccc2)oc2ccc(OCC(=O)NNC(=O)CCCC(=O)O)cc12 | 19.7%
43 | CCOc1cccc(=O)c2c(C)n(Cc3ccccc3)c(C)c12 | 11.8%
44 | CC(C)NC(=O)C(=O)NCCN1CCN(S(=O)(=O)c2ccc(Cl)cc2)CC1 | -33.3%

Row | SMILES | hERG current change (%, negative = inhibition) at 10uM
45 | O=C(Oc1ccccc1)c1cccc(COC(=O)c2cnccn2)c1 | 1.45%
46 | O=C(NNC(=O)c1ccccc1O)c1ccc(NS(=O)(=O)c2ccc(F)cc2)cc1 | 6.21%
47 | COc1ccc(OC)c(CNC(=O)c2nn(C)c3c2CS(=O)(=O)c2ccccc2-3)c1 | 15.3%
48 | Cc1ccc(NN=C2c3ccccc3-c3ccccc32)cc1.Cl | 21.9%
49 | Cc1ccc(Nc2cc(C)nc3ncnn23)cc1 | 2.81%
50 | Cc1c(C(=O)O)nn(-c2cccc(C(F)(F)F)c2)c(=O)c1C#N | 4.53%
51 | Cc1ccc2[nH]c(C(=O)O)c(-c3ccccc3)c2c1 | 3.08%
52 | CCn1c(CSc2ncn[nH]2)nc2cc(C(=O)O)ccc21 | -4.97%
53 | CCCCC1(C)Nc2ccccc2-c2nc3ccccc3n21 (centres unmarked) | -0.873%
54 | C/C=C/C(=O)Nc1nnc(C(C)C)s1 | -4.91%
55 | Cc1cccc(C)c1-n1c(C)cc(/C=N/NC(=O)c2ccncc2)c1C | -12%
56 | CCN(CC)C(=O)C1=C(C)Nc2nc3ccccc3n2C1c1cccc(OC)c1 (centres unmarked) | 6.19%
57 | O=C(OCc1cn(Cc2ccccc2)nn1)c1ccccc1 | -2.92%
58 | CCS(=O)(=O)N1CCC(C(=O)N2CCN(Cc3ccccc3)CC2)CC1 | -11.2%
59 | CCOC(=O)C1CCN(/C=C2/C(=O)NC(=O)N(c3ccc(OCC)cc3)C2=O)CC1 | 5.02%
60 | COc1ccc(-n2c(C)ccc2-c2ccccc2)cn1 | -2.63%
61 | CC(C)=NNc1nc2c(c(=O)[nH]c(=O)n2C)n1CCc1ccccc1 | 13.3%
62 | Cc1ccc(CNC(=O)CN2CCC(C(N)=O)CC2)cc1 | 6.94%
63 | Cc1ccc(C(=O)N2CCCC(CCC(=O)N3CCN(c4ccccn4)CC3)C2)s1 (centres unmarked) | -24.5%
64 | Cl.OC(COc1ccc(Br)cc1)CN1CCC(Cc2ccccc2)CC1 (centres unmarked) | -85.9%
65 | Cc1ccc(O)c(NC(=O)c2ccc3c(c2)C(=O)N(CC(C)C)C3=O)c1 | 17.7%
66 | CN=C1NN=C(c2cc(C)n(-c3c(C)n(C)n(-c4ccccc4)c3=O)c2C)CS1.Cl | 15.4%

Row | SMILES | hERG current change (%, negative = inhibition) at 10uM
67 | CC(=O)Nc1ccc(S(=O)(=O)N2CCSC2)cc1 | 1.65%
68 | O=C(CSc1nnc(Cn2nnc(-c3ccccc3)n2)n1-c1ccccc1)Nc1ccccc1 | 15.9%
69 | COC(=O)C(CCCN1C(=O)c2ccccc2C1=O)(NC(C)=O)c1nn[nH]n1 (centres unmarked) | 12.7%
70 | CCN(CC)CCN=Cc1c(O)n(Cc2ccco2)c(=O)[nH]c1=O | 0.932%
71 | COC(=O)c1ccccc1NC(=O)Nc1nnc(N2CCC(C)CC2)s1 | 4.81%
72 | C#CCNc1nc(CC)nc2c1nnn2Cc1ccccc1F | -0.696%
73 | C=C(C)C1Cc2c(C)nn(-c3cccc4cccnc34)c2C1 (centres unmarked) | 0.118%
74 | O=C(NNC(=O)c1ccc(-c2ccc([N+](=O)[O-])cc2)o1)c1ccncc1 | -17.9%
75 | Cc1ccc(NC(=O)CN(CCc2ccccc2)S(C)(=O)=O)cc1 | -1.81%
76 | CCOC(=O)Nc1ccc2c(CN3CCN(S(=O)(=O)c4ccc(C(C)C)cc4)CC3)cc(=O)oc2c1 | 6.35%
77 | COc1cc(CN2CCC(Cc3ccccc3)CC2)cc(OC)c1OC.O=C(O)C(=O)O | -52.8%
78 | CSC1=NC(C)(C)CC2(C)Nc3ccccc3N12 (centres unmarked) | 10.1%
79 | NC(=O)c1cccc2cc3ccccc3cc12 | 19.2%
80 | O=S(=O)(Nc1ccccc1N1CCCCC1)c1ccc(Cl)s1 | 3.31%
81 | CN1CC(C(=O)c2cccs2)C(c2ccc(Cl)cc2)C1 (centres unmarked) | -49.2%
82 | Cc1ccc(CNC(=O)c2ccc(C#CC(C)(C)O)s2)cc1 | -3.51%
83 | Cc1cc(OCC(=O)c2ccc(C(F)(F)F)cc2)n2cnnc2n1 | 5.8%
84 | CC1CN(C(=O)COC(=O)c2ccc(N(C)C)cc2)CC(C)O1 (centres unmarked) | 8.42%
85 | CC(=O)O[C@@]12CO[C@@H]1C[C@H](O)[C@@]1(C)C(=O)[C@H](O)C3=C(C)[C@@H](OC(=O)[C@H](O)[C@@H](NC(=O)OC(C)(C)C)c4ccccc4)C[C@](O)([C@@H](OC(=O)c4ccccc4)[C@H]21)C3(C)C | -5.62%
86 | Cc1nnc(NC(=O)C2=COCCO2)s1 | 7.13%
